Assay results published in the RNAGym collection of RNA variant scans (doi:10.1073/pnas.2313332121).
Variants at the background level are over-represented here.

B1: TPR 5TU (parent)
chain: GGAUCUUCUCGAUCUAACAAAAAAGACAAAUCUGCCACAAAGCUUGAGAGCAUCUUCGGAUGCAGAGGCGGCAGCCUUCGGUGGCGCGAUAGCGCCAACGUUCUCAACUAUGACACGCAAAACGCGUGCUCCGUUGAAUGGAGUUUAUCAUG

Variants of: B1
Experiment: polymerase ribozyme fitness, log enrichment relative to wild type (log ratio); higher = more active; in vitro selection for triplet polymerase activity
Method in brief: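 After PCR construction and transcription, each subunit's mutant library from a heterodimeric triplet polymerase ribozyme was annealed with a biotinylated primer, the partner subunit and triplets. Incubation was frozen, at −7 °C, and extended constructs were gel-excised, bound to streptavidin beads and amplified by RT-PCR, in one selection round done in triplicate. Fitness is the logarithm of a genotype's enrichment divided by that of the wild type, from inverse-variance-weighted replicate averages of Illumina-sequenced inputs and outputs. The base of the logarithm is 2, and genotypes needed ≥10 input reads and ≥1 read per output.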
For G88C A97G C118G U145C C149G, the “polymerase ribozyme fitness (log ratio)” value was at most -4.2. For C85U U101A, the “polymerase ribozyme fitness (log ratio)” value was -0.791. With G88C C96G the “polymerase ribozyme fitness (log ratio)” value was at most -4.2. In the case of C87U C99A C108A C114G, the “polymerase ribozyme fitness (log ratio)” value is reported as at most -4.2. For G88A C103G, the “polymerase ribozyme fitness (log ratio)” value was at most -4.2. In the case of C87A G141A, the “polymerase ribozyme fitness (log ratio)” value is reported as -3.89. With G86A A110U the “polymerase ribozyme fitness (log ratio)” value was at most -4.2. With C85A U111A the “polymerase ribozyme fitness (log ratio)” value was at most -4.2. For G86A A150G, the “polymerase ribozyme fitness (log ratio)” value was -3.09. For C87U C105G U130G, the “polymerase ribozyme fitness (log ratio)” value was at most -4.2. With C85G C114U the “polymerase ribozyme fitness (log ratio)” value was -3.49. For C87U C125A C131U, the “polymerase ribozyme fitness (log ratio)” value was 0.186. For G88A A106G, the “polymerase ribozyme fitness (log ratio)” value was -3.55. For C85U C108A, the “polymerase ribozyme fitness (log ratio)” value was at most -4.2. With G86A C149A the “polymerase ribozyme fitness (log ratio)” value was at most -4.2. With C87U C118G A142U G152U the “polymerase ribozyme fitness (log ratio)” value was at most -4.2. With C87G G88U G143U the “polymerase ribozyme fitness (log ratio)” value was at most -4.2. For C85U C116G U151G, the “polymerase ribozyme fitness (log ratio)” value was at most -4.2. With C85U A89G the “polymerase ribozyme fitness (log ratio)” value was -2.67. In the case of G86U U90G C103A A119C A121C A138C, the “polymerase ribozyme fitness (log ratio)” value is reported as at most -4.2. For C87U C129A, the “polymerase ribozyme fitness (log ratio)” value was -2.76. With G86C U145C the “polymerase ribozyme fitness (log ratio)” value was -3.66. With G86U C87U A91C G117C the “polymerase ribozyme fitness (log ratio)” value was at most -4.2. For G86U C87A G143C U144C U146A, the “polymerase ribozyme fitness (log ratio)” value was at most -4.2. For C85U G133U, the “polymerase ribozyme fitness (log ratio)” value was -2.28. In the case of C85A U104G A113C A120U, the “polymerase ribozyme fitness (log ratio)” value is reported as at most -4.2. For C87A G88A G117A A119G, the “polymerase ribozyme fitness (log ratio)” value was at most -4.2. For C85G U104G A119C G143U C149G, the “polymerase ribozyme fitness (log ratio)” value was at most -4.2. In the case of G88C A91U A115U U148G, the “polymerase ribozyme fitness (log ratio)” value is reported as at most -4.2. In the case of C85U A91C U102C, the “polymerase ribozyme fitness (log ratio)” value is reported as at most -4.2. With C87G U134A the “polymerase ribozyme fitness (log ratio)” value was at most -4.2. For C85G A147C, the “polymerase ribozyme fitness (log ratio)” value was -1.67. For G86C U104A, the “polymerase ribozyme fitness (log ratio)” value was -2.46. In the case of C85G C99G C116G G136U, the “polymerase ribozyme fitness (log ratio)” value is reported as at most -4.2. With C85G U144G the “polymerase ribozyme fitness (log ratio)” value was -1.75. For C87G G133U, the “polymerase ribozyme fitness (log ratio)” value was at most -4.2. In the case of C85U G128U C131U, the “polymerase ribozyme fitness (log ratio)” value is reported as -2.93. For C85U G100U A121C G124A C125G G136A A142G G152U, the “polymerase ribozyme fitness (log ratio)” value was at most -4.2. With C87G A97U G100C the “polymerase ribozyme fitness (log ratio)” value was at most -4.2. In the case of C85G G100A U146C, the “polymerase ribozyme fitness (log ratio)” value is reported as at most -4.2. In the case of G88C C99A A119U, the “polymerase ribozyme fitness (log ratio)” value is reported as at most -4.2. In the case of C85U A115G, the “polymerase ribozyme fitness (log ratio)” value is reported as -2.3. For G86U C132A, the “polymerase ribozyme fitness (log ratio)” value was at most -4.2. For C85G G92C A106C A120U A121G U134A, the “polymerase ribozyme fitness (log ratio)” value was at most -4.2. In the case of G86C A107G C125G, the “polymerase ribozyme fitness (log ratio)” value is reported as at most -4.2. With C85U A122C the “polymerase ribozyme fitness (log ratio)” value was -1.06. In the case of C85G C116U U144C, the “polymerase ribozyme fitness (log ratio)” value is reported as -3.36. In the case of C85U G117U, the “polymerase ribozyme fitness (log ratio)” value is reported as 0.675. In the case of C85G C131G, the “polymerase ribozyme fitness (log ratio)” value is reported as at most -4.2. For C87A G100A, the “polymerase ribozyme fitness (log ratio)” value was at most -4.2. In the case of C85U G136U, the “polymerase ribozyme fitness (log ratio)” value is reported as -1.83. With C87G C105U C114G G143A the “polymerase ribozyme fitness (log ratio)” value was at most -4.2. For G88A U144G, the “polymerase ribozyme fitness (log ratio)” value was -3.35. For C87U A137G U148C, the “polymerase ribozyme fitness (log ratio)” value was -3.87. In the case of G86C U101G U134A, the “polymerase ribozyme fitness (log ratio)” value is reported as at most -4.2. In the case of G88C A106C C123A G126C A138G, the “polymerase ribozyme fitness (log ratio)” value is reported as at most -4.2. In the case of G86C G100A G136U U144A, the “polymerase ribozyme fitness (log ratio)” value is reported as at most -4.2. In the case of C87G G92C C125U U127G U135G G141C, the “polymerase ribozyme fitness (log ratio)” value is reported as at most -4.2. With C87U U102C the “polymerase ribozyme fitness (log ratio)” value was -1.21. For G86C A89G C95A A113G C114G A142U, the “polymerase ribozyme fitness (log ratio)” value was at most -4.2. With C85G C105G the “polymerase ribozyme fitness (log ratio)” value was at most -4.2. With G86A A91C C118U the “polymerase ribozyme fitness (log ratio)” value was at most -4.2. In the case of C85G A119U, the “polymerase ribozyme fitness (log ratio)” value is reported as -3.69. In the case of C87A U146A, the “polymerase ribozyme fitness (log ratio)” value is reported as at most -4.2. In the case of C87A A110G, the “polymerase ribozyme fitness (log ratio)” value is reported as at most -4.2. For C85G G100U G141U, the “polymerase ribozyme fitness (log ratio)” value was at most -4.2. With C85G C96G the “polymerase ribozyme fitness (log ratio)” value was -3.49. For C85A U134G, the “polymerase ribozyme fitness (log ratio)” value was -3.6. In the case of C87U A142C U148A, the “polymerase ribozyme fitness (log ratio)” value is reported as at most -4.2. In the case of C87G G94C C132G, the “polymerase ribozyme fitness (log ratio)” value is reported as at most -4.2. For C87G G112U, the “polymerase ribozyme fitness (log ratio)” value was at most -4.2. With C85U A89U A107C A121G the “polymerase ribozyme fitness (log ratio)” value was at most -4.2. In the case of C85A G136U, the “polymerase ribozyme fitness (log ratio)” value is reported as at most -4.2. In the case of C87U A110G G112U, the “polymerase ribozyme fitness (log ratio)” value is reported as at most -4.2. With C87U U90G the “polymerase ribozyme fitness (log ratio)” value was at most -4.2. In the case of G88A A91G, the “polymerase ribozyme fitness (log ratio)” value is reported as at most -4.2. In the case of C85U C114G G128A, the “polymerase ribozyme fitness (log ratio)” value is reported as at most -4.2. For C85U U146G U148C, the “polymerase ribozyme fitness (log ratio)” value was -2.24. With C87A A91G G152U the “polymerase ribozyme fitness (log ratio)” value was -4.13. With C85G A107G U127C the “polymerase ribozyme fitness (log ratio)” value was at most -4.2. In the case of C87G A115C U134C A150C, the “polymerase ribozyme fitness (log ratio)” value is reported as at most -4.2. With G86C C105U the “polymerase ribozyme fitness (log ratio)” value was -1.5. With G86C G94C C116G the “polymerase ribozyme fitness (log ratio)” value was at most -4.2.
